Test results published in the supplement of paper PMC3334620.
Over roughly 33,000 sequences, “E-score (-0.5 to 0.5)” has its median near -0.016; the highest 2% begin near 0.32. This is one part of the list.

biological target: T1, Stp1 (UniProt B3LFK1); assay: PBM E-score (8-mer binding enrichment) (E-score (-0.5 to 0.5)); higher = stronger / more preferred TF binding; most listed sequences are background and not binding sites; conditions: protein concentration: 200 nM; construct: GST-full length
T1 sequence: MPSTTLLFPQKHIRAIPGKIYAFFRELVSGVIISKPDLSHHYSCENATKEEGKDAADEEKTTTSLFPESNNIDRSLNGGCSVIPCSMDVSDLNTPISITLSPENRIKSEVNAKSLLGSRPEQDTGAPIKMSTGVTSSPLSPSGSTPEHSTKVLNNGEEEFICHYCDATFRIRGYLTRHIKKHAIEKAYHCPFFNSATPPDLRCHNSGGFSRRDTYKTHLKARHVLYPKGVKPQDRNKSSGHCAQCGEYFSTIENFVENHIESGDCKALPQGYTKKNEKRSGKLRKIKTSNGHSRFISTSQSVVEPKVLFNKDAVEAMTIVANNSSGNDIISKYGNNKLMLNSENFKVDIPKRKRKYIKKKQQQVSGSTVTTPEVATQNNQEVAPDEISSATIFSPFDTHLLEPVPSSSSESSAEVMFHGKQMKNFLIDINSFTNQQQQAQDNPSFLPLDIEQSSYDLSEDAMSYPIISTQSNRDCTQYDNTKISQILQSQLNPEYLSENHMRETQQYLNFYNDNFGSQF
How it was run: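 Masliner-normalised scans of fluorescent anti-GST signal were the basis for scoring. That signal came from GST-tagged yeast transcription factors applied at about 100-200 nM to double-stranded universal all-10-mer Agilent arrays on fresh or once-stripped slides. Each ungapped eight-base word, pooled with its reverse complement, received an E-score from the Universal PBM Analysis Suite.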

Sequence	PBM E-score
GATTGTGA	-0.0398
GACAGCTC	-0.34
GTTGAGCA	-0.119
GAAAGGAC	0.0713
ATAGTTAA	-0.0226
CCGAGCCC	-0.29
CGCCGGTC	0.226
AGTGTACG	0.114
AGCTACCG	-0.16
ATCCAATA	0.0666
CCCAACCC	-0.174
CAGAACTA	-0.124
ACGCCACT	0.124
CGTTAGCC	0.00817
TAAGCGGA	-0.0184
CGCTCAAA	0.0128
GATAATTA	0.206
CACTGACG	0.024
CGCAGCCG	0.0895
AAATAGGA	0.0865
AACTGCTG	-0.201
AGAGGGTA	-0.144
CCGTTCTC	0.126
CGCTGCAA	0.062
AAGGCGCT	0.396

Sequence	PBM E-score
GCCGCTCC	0.398
ACACCTGT	-0.0431
CAGTTTGA	0.047
AATTCTCT	-0.0728
GTCACAAA	-0.0375
CCCCGGAG	-0.325
GCATCAGA	0.0787
AACGTCTT	-0.0314
GTACCCTA	-0.11
GTCTGCCA	-0.0635
AATCTGCC	-0.0157
ACGAAACA	0.0445
GTCTCCGA	-0.0488
ACTGGCCA	-0.155
AAATTAAA	0.213
TATGTGCA	0.0127
CGCTGACG	-0.218
TATAAACA	0.106
CTGCAAGC	-0.167
CCAGCAGA	0.0777
CATCGGAG	-0.251
CTGATCAA	-0.186
ACAGTGTG	0.0421
AGCGTGTA	0.0473
AATCTAGG	0.0359

Sequence	PBM E-score
ACTGATGA	-0.00519
GAAACCGA	-0.117
GTGGGTGA	-0.00775
ACATAATA	0.271
CCTCAATC	0.0837
CCAAAAGG	0.0993
GTTGATCA	0.0772
GAATAGAC	4e-05
CTTGGCAA	-0.119
GGAGTACA	-0.00077
CAATGCTG	-0.0733
TGACCTCA	-0.179
CACGGGGG	-0.208
GGAATTCA	-0.0981
ACAAAACT	-0.0132
CAAAAGCG	0.139
GGCACGAA	0.389
CGTCGTAC	0.00437
ACTGGAGC	-0.132
CGACAAAC	-0.0673
AATTCAGA	-0.0484
AATTAAGT	0.131
CAGATCTG	-0.131
AGGGCTCC	-0.0621
ATCTCATG	0.0649

Sequence	PBM E-score
CCTTGTCG	0.062
GGGACATA	-0.103
ACCAGAGC	-0.0074
AATGGAAC	0.111
AAGAATAG	0.0219
AGTTGGTA	-0.0223
ACTTGGCG	-0.147
GCGACCCC	-0.105
CGAAAGCG	-0.186
AACTCAAG	0.031
AATGCCAC	0.293
ACTTGGAA	0.0328
ACGGCAAG	0.369
ATCTGGCA	0.183
CCAGACGA	-0.0954
GTCGTATA	0.109
CTACATGC	-0.0103
AAGGAGCT	-0.235
AAGAATAA	0.109
ACAATAGT	0.139
GCATTCAC	0.145
ACATCGGC	-0.0114
AACAGACG	0.0384
AAACTTCG	-0.0397
GCAAAGAC	-0.00553

Sequence	PBM E-score
GGTTCGTA	0.101
CCCTTCAC	-0.174
CTTTTGTC	0.137
TATCACAA	0.0226
GCACCATA	0.0723
CTGCCGTA	0.343
ATAGCGAT	-0.197
GGTACTCA	-0.034
GACCCTAC	-0.237
GGTCGAAA	-0.127
CGCGGTAA	0.143
AGGGCCTC	-0.252
AAGGCTGT	-0.207
ATTCGAAG	0.0185
TAGAGCAA	0.124
AGCTAAAA	-0.0484
ATGGCATG	0.22
TCTTTACA	0.121
ACAGCCTC	-0.142
CATTTTAG	0.182
CGCTCCAC	-0.0213
TATGCCGA	0.094
ATATTTCC	0.104
CCTGTCCC	-0.228
AATGGTGT	0.0274

Sequence	PBM E-score
CAGCTCAG	-0.174
TGATCGAA	0.041
GTCGGCGA	-0.0125
AGGGCGGA	-0.12
ACCAAGTG	-0.0911
AGGGACTC	-0.335
TAACGATA	0.06
CGTGTCCA	-0.0177
GATTAAAC	0.102
AGAACCTG	-0.129
ATGTCGTA	-0.147
AAGTTCGA	0.0556
ATGGAGGC	-0.236
CATACAGA	0.084
ATGCCTGC	0.157
CTACGTAA	0.156
AAATACCC	0.15
CCTATCTC	-0.0666
GACGGCTC	0.307
CTGGAGCA	-0.19
TATGGCAA	0.228
AGCGACAA	-0.105
AAGGTTTG	-0.0112
GTTTGGCA	0.0408
CTTCTGCC	0.127

Sequence	PBM E-score
AAGCTTGT	-0.0584
CGAGCTTA	-0.123
CCTGATCC	-0.191
GCCGTCAA	0.12
CTATCGAC	-0.156
AATCGGGA	-0.0757
CTCCCGTC	0.0242
ACAGTACT	-0.276
AGGGCTCA	-0.101
GCTCGGCC	-0.0984
GCAAAGCA	-0.107
CAGTATTC	0.00417
CACAATAA	0.12
CCAAGCTC	-0.115
CCTGACAG	-0.178
GCCGCACC	0.449
GCCAAACA	0.0263
TGTGCCAA	0.117
ACAAATTC	0.161
CAATCGGC	0.115
CTAGTGCA	0.0645
AGTCAACT	-0.268
GCCGAAAA	0.237
CTGTACGC	0.0513
AGGGGCTG	-0.204

Sequence	PBM E-score
ATTTCTTC	0.25
ACTCATGG	-0.23
GGCAACCA	0.0684
AGATGAAG	-0.171
GCCTGTTA	-0.111
GAGACTCA	-0.212
ATTTGGCA	0.0414
CCACCGCC	-0.0507
ACTTACTG	-0.0358
CCGTAGCC	0.0394
ACCGACCG	-0.13
AGTTCTAC	-0.0748
CAATTGAC	0.0501
CTCGAACA	-0.136
CCATTGCA	0.0123
CGGCAACG	0.368
GGCTAGAC	-0.196
CAGCTAAG	-0.153
ACAACGTG	-0.00296
CTGAAGTA	0.00744
CCAGTTAG	-0.0502
CTGCCCAG	-0.284
CTGCTTAA	-0.111
GCCGCCAC	0.0605
GGGGAGCA	-0.353

Sequence	PBM E-score
CTGCAAAG	-0.0716
AACCGGAG	0.0218
CTCCACAC	0.014
ATGGTTAG	-0.119
GCAAATCC	0.134
AGCATCCA	-0.235
CGGTAATC	-0.137
CTATCCTA	-0.0474
AGCCCCAC	-0.151
AAACTCGC	0.0541
CATCTACG	0.045
AAGAGATC	-0.108
AGGTGCTC	-0.295
CCACTTAA	0.0627
CCGCTTCC	0.0449
ACAGTTGC	-0.0462
ATTTACCA	0.0814
CAGTAACG	0.0111
TACCTCGA	-0.106
